# According to the supplement of paper PMC10037445:
# Where “and” joins values, the source holds several entries; their conditions need not be identical. Identical values can stand only once. The full ranking holds about 2,900 compounds; the median of “IRF Lucia reporter activity, fold change vs agonist alone” is about 0.9, and the highest 2% start at about 2.8. The list shows a part of the results.
# Key:
# [1] = test system: RAW-Dual; test: IRF Lucia reporter activity, fold change vs agonist alone; cytotoxicity flag (confluency mask): not cytotoxic; higher = enhanced IRF activity
# Procedure, shortened: (§1)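 RAW-Dual macrophages (50,000 cells/well in DMEM, 384-well plates) received 50 nL of library stock by pin tool, then a PRR agonist 1 h later, and were kept at 37 °C, 5% CO2. After 20 hours, supernatant was read for IRF by QuantiLuc luminescence and for NF-κB by QuantiBlue absorbance at 620 nm. Reporter activity is fold change over agonist-alone wells. Cytotoxic wells had IncuCyte confluency below 70% of agonist controls in both mask sets.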
# [2] = test system: RAW-Dual; test: IRF Lucia reporter activity, fold change vs agonist alone; higher = enhanced IRF activity; conditions: library stock concentration (final ~1000-fold dilution): 10 mM, agonist: MPLA (TLR4) […]
# Procedure, shortened: as §1
# [3] = test system: RAW-Dual; test: IRF Lucia reporter activity, fold change vs agonist alone; cytotoxicity flag (confluency mask): cytotoxic (confluency <70% of control); higher = enhanced IRF activity
# Procedure, shortened: as §1
# [4] = agonist: 3'3'-cGAMP (STING) 10 ug/mL
# [5] = cytotoxicity flag (confluency mask): not cytotoxic
# [6] = cytotoxicity flag (confluency mask): cytotoxic (confluency <70% of control)
smiles,measurement,setting,value
COc1ccc2c(c1)c(CC(=O)O)c(C)n2C(=O)c1ccc(Cl)cc1 (library stock concentration (final ~1000-fold dilution): 10 mM),IRF Lucia reporter activity,[1]; [4],1.07 and 1.03
same,IRF Lucia reporter activity,[1]; agonist: LPS (TLR4) 0.1 ug/mL,1.28 and 0.991
Nc1nc2ccc(OC(F)(F)F)cc2s1 (library stock concentration (final ~1000-fold dilution): 10 mM),IRF Lucia reporter activity,[1]; [4],0.961
same,IRF Lucia reporter activity,[1]; agonist: LPS (TLR4) 0.1 ug/mL,0.869
Nc1nc2ccc(OC(F)(F)F)cc2s1,IRF Lucia reporter activity,[2]; [5],1.02
CNC(=O)c1cc(Oc2ccc(NC(=O)Nc3cc(C(C)(C)C)nn3-c3ccc4ncccc4c3)c(F)c2)ccn1 (library stock concentration (final ~1000-fold dilution): 10 mM),IRF Lucia reporter activity,[1]; [4],1.05
same,IRF Lucia reporter activity,[1]; agonist: LPS (TLR4) 0.1 ug/mL,0.0221
CNC(=O)c1cc(Oc2ccc(NC(=O)Nc3cc(C(C)(C)C)nn3-c3ccc4ncccc4c3)c(F)c2)ccn1,IRF Lucia reporter activity,[2]; [5],0.95
COc1ccc(CCN(C)CCCC(C#N)(c2ccc(OC)c(OC)c2)C(C)C)cc1OC.Cl (stereo not given),IRF Lucia reporter activity,[2]; [5],1.11
COc1ccc(CCN(C)CCCC(C#N)(c2ccc(OC)c(OC)c2)C(C)C)cc1OC.Cl (stereo not given) (library stock concentration (final ~1000-fold dilution): 10 mM),IRF Lucia reporter activity,[1]; [4],0.616
same,IRF Lucia reporter activity,[1]; agonist: LPS (TLR4) 0.1 ug/mL,1.1
N#Cc1cc2cc(CN3CCC(Nc4ncnc5sc(CC(F)(F)F)cc45)CC3)ccc2[nH]1 (library stock concentration (final ~1000-fold dilution): 10 mM),IRF Lucia reporter activity,[1]; [4],0.109
same,IRF Lucia reporter activity,[1]; agonist: LPS (TLR4) 0.1 ug/mL,0.719
Cc1ccc(=O)n(-c2ccccc2)c1 (library stock concentration (final ~1000-fold dilution): 10 mM),IRF Lucia reporter activity,[1]; [4],1
same,IRF Lucia reporter activity,[1]; agonist: LPS (TLR4) 0.1 ug/mL,0.939
Cc1ccc(=O)n(-c2ccccc2)c1,IRF Lucia reporter activity,[2]; [5],1.02
CC(=O)OCC1OC([S-])C(OC(C)=O)C(OC(C)=O)C1OC(C)=O.CCP(CC)CC.[Au+] (stereo not given) (library stock concentration (final ~1000-fold dilution): 10 mM),IRF Lucia reporter activity,[3]; [4],0.0169
same,IRF Lucia reporter activity,[3]; agonist: LPS (TLR4) 0.1 ug/mL,0.0188
CC(=O)OCC1OC([S-])C(OC(C)=O)C(OC(C)=O)C1OC(C)=O.CCP(CC)CC.[Au+] (stereo not given),IRF Lucia reporter activity,[2]; [6],0.0231
COC1CC2CCC(C)C(O)(O2)C(=O)C(=O)N2CCCCC2C(=O)OC(C(C)CC2CCC(OP(C)(C)=O)C(OC)C2)CC(=O)C(C)C=C(C)C(O)C(OC)C(=O)C(C)CC(C)C=CC=CC=C1C (stereo not given) (library stock concentration (final ~1000-fold dilution): 10 mM),IRF Lucia reporter activity,[1]; [4],1.03
same,IRF Lucia reporter activity,[1]; agonist: LPS (TLR4) 0.1 ug/mL,1.6
COC1CC2CCC(C)C(O)(O2)C(=O)C(=O)N2CCCCC2C(=O)OC(C(C)CC2CCC(OP(C)(C)=O)C(OC)C2)CC(=O)C(C)C=C(C)C(O)C(OC)C(=O)C(C)CC(C)C=CC=CC=C1C (stereo not given),IRF Lucia reporter activity,[2]; [5],1.24
Cl.Nc1ccc(N=Nc2ccccc2)c(N)n1 (library stock concentration (final ~1000-fold dilution): 10 mM),IRF Lucia reporter activity,[1]; [4],0.305
same,IRF Lucia reporter activity,[1]; agonist: LPS (TLR4) 0.1 ug/mL,0.976
Cl.Nc1ccc(N=Nc2ccccc2)c(N)n1,IRF Lucia reporter activity,[2]; [5],0.989
CC(C)c1nc(CN(C)C(=O)NC(C(=O)NC(Cc2ccccc2)CC(O)C(Cc2ccccc2)NC(=O)OCc2cncs2)C(C)C)cs1 (stereo not given) (library stock concentration (final ~1000-fold dilution): 10 mM),IRF Lucia reporter activity,[1]; [4],0.757
same,IRF Lucia reporter activity,[1]; agonist: LPS (TLR4) 0.1 ug/mL,1.34
CC(C)c1nc(CN(C)C(=O)NC(C(=O)NC(Cc2ccccc2)CC(O)C(Cc2ccccc2)NC(=O)OCc2cncs2)C(C)C)cs1 (stereo not given),IRF Lucia reporter activity,[2]; [5],1.07
CCn1c(-c2nonc2N)nc2cnc(Oc3cccc(NC(=O)c4ccc(OCCN5CCOCC5)cc4)c3)cc21.Cl (library stock concentration (final ~1000-fold dilution): 10 mM),IRF Lucia reporter activity,[1]; [4],0.0316
same,IRF Lucia reporter activity,[1]; agonist: LPS (TLR4) 0.1 ug/mL,0.297
CCN1CCN(Cc2ccc(C(=O)Nc3ccc(C)c(Oc4ccc5c(c4)CC(=O)N5)c3)cc2C(F)(F)F)CC1 (library stock concentration (final ~1000-fold dilution): 10 mM),IRF Lucia reporter activity,[3]; [4],0.212
same,IRF Lucia reporter activity,[3]; agonist: LPS (TLR4) 0.1 ug/mL,0.665
CCN1CCN(Cc2ccc(C(=O)Nc3ccc(C)c(Oc4ccc5c(c4)CC(=O)N5)c3)cc2C(F)(F)F)CC1,IRF Lucia reporter activity,[2]; [6],0.48
CS(=O)(=O)O.Cc1ccc(N(CC2=NCCN2)c2cccc(O)c2)cc1,IRF Lucia reporter activity,[2]; [5],0.907
CS(=O)(=O)O.Cc1ccc(N(CC2=NCCN2)c2cccc(O)c2)cc1 (library stock concentration (final ~1000-fold dilution): 10 mM),IRF Lucia reporter activity,[1]; [4],0.803
same,IRF Lucia reporter activity,[1]; agonist: LPS (TLR4) 0.1 ug/mL,0.89
CC1=NN(c2ccc(C)c(C)c2)C(=O)/C1=N\Nc1cccc(-c2cccc(C(=O)O)c2)c1O.NCCO.NCCO (library stock concentration (final ~1000-fold dilution): 10 mM),IRF Lucia reporter activity,[1]; [4],0.71
same,IRF Lucia reporter activity,[1]; agonist: LPS (TLR4) 0.1 ug/mL,1.31
CC1=NN(c2ccc(C)c(C)c2)C(=O)/C1=N\Nc1cccc(-c2cccc(C(=O)O)c2)c1O.NCCO.NCCO,IRF Lucia reporter activity,[2]; [5],1.11
CC(=O)OC1CCC2(C)C(=CCC3C2CCC2(C)C(c4cccnc4)=CCC32)C1 (stereo not given),IRF Lucia reporter activity,[2]; [5],1.33
CC(=O)OC1CCC2(C)C(=CCC3C2CCC2(C)C(c4cccnc4)=CCC32)C1 (stereo not given) (library stock concentration (final ~1000-fold dilution): 10 mM),IRF Lucia reporter activity,[1]; [4],0.849
same,IRF Lucia reporter activity,[1]; agonist: LPS (TLR4) 0.1 ug/mL,0.775
CCOC(=O)/C=C/c1ccc(O)c(O)c1 (library stock concentration (final ~1000-fold dilution): 10 mM),IRF Lucia reporter activity,[1]; [4],0.0622 and 0.0316
same,IRF Lucia reporter activity,[1]; agonist: LPS (TLR4) 0.1 ug/mL,0.528 and 0.823
CCOC(=O)/C=C/c1ccc(O)c(O)c1,IRF Lucia reporter activity,[2]; [5],0.597
NC(=O)c1ccc(OCCCN2CC3CCCC3C2)cc1 (stereo not given) (library stock concentration (final ~1000-fold dilution): 10 mM),IRF Lucia reporter activity,[1]; [4],1.05
same,IRF Lucia reporter activity,[1]; agonist: LPS (TLR4) 0.1 ug/mL,1.13
O=C(Oc1cc(S(=O)(=O)c2ccccc2)ccc1[N+](=O)[O-])c1ccc(Cl)cc1,IRF Lucia reporter activity,[2]; [5],0.734
O=C(Oc1cc(S(=O)(=O)c2ccccc2)ccc1[N+](=O)[O-])c1ccc(Cl)cc1 (library stock concentration (final ~1000-fold dilution): 10 mM),IRF Lucia reporter activity,[1]; [4],0.289
same,IRF Lucia reporter activity,[1]; agonist: LPS (TLR4) 0.1 ug/mL,0.367
O=C(O)/C=C\C(=O)O.O=C(c1ccc(OCCCc2c[nH]cn2)cc1)C1CC1,IRF Lucia reporter activity,[2]; [5],1.08
O=C(O)/C=C\C(=O)O.O=C(c1ccc(OCCCc2c[nH]cn2)cc1)C1CC1 (library stock concentration (final ~1000-fold dilution): 10 mM),IRF Lucia reporter activity,[1]; [4],1.11
same,IRF Lucia reporter activity,[1]; agonist: LPS (TLR4) 0.1 ug/mL,0.839
COC(=O)C1=C(C#N)NC(C)=C(C(=O)OC(C)C)C1c1cccc([N+](=O)[O-])c1 (stereo not given) (library stock concentration (final ~1000-fold dilution): 10 mM),IRF Lucia reporter activity,[3]; [4],1.12
same,IRF Lucia reporter activity,[3]; agonist: LPS (TLR4) 0.1 ug/mL,1.33
COC(=O)C1=C(C#N)NC(C)=C(C(=O)OC(C)C)C1c1cccc([N+](=O)[O-])c1 (stereo not given),IRF Lucia reporter activity,[2]; [6],1.97
CC(C)(O)CNc1ncc(-c2ccnc(Nc3ccnc(Cl)c3)n2)c(CC2CC2)n1 (library stock concentration (final ~1000-fold dilution): 10 mM),IRF Lucia reporter activity,[1]; [4],0.0702
same,IRF Lucia reporter activity,[1]; agonist: LPS (TLR4) 0.1 ug/mL,3.2
CNc1nc(Nc2cn(C(C)(C)C#N)nc2C)ncc1C(F)(F)F,IRF Lucia reporter activity,[2]; [5],1.12
CNc1nc(Nc2cn(C(C)(C)C#N)nc2C)ncc1C(F)(F)F (library stock concentration (final ~1000-fold dilution): 10 mM),IRF Lucia reporter activity,[1]; [4],0.665
same,IRF Lucia reporter activity,[1]; agonist: LPS (TLR4) 0.1 ug/mL,0.819
C=CC(=O)N1C/C(=C\c2ccc([N+](=O)[O-])cc2)C(=O)/C(=C/c2ccc([N+](=O)[O-])cc2)C1 (library stock concentration (final ~1000-fold dilution): 10 mM),IRF Lucia reporter activity,[3]; [4],0.146
same,IRF Lucia reporter activity,[3]; agonist: LPS (TLR4) 0.1 ug/mL,0.0615
C=CC(=O)N1C/C(=C\c2ccc([N+](=O)[O-])cc2)C(=O)/C(=C/c2ccc([N+](=O)[O-])cc2)C1,IRF Lucia reporter activity,[2]; [6],0.573
Cn1c(-c2ccccc2C(F)(F)F)nnc1C12CCC(c3noc(C4CC(F)(F)C4)n3)(CC1)CC2 (library stock concentration (final ~1000-fold dilution): 10 mM),IRF Lucia reporter activity,[1]; [4],1.54
same,IRF Lucia reporter activity,[1]; agonist: LPS (TLR4) 0.1 ug/mL,1.6
O=C(Nc1ccncc1)c1cc([N+](=O)[O-])ccc1Cl (library stock concentration (final ~1000-fold dilution): 10 mM),IRF Lucia reporter activity,[1]; [4],1.05
same,IRF Lucia reporter activity,[1]; agonist: LPS (TLR4) 0.1 ug/mL,1.21
O=C(Nc1ccncc1)c1cc([N+](=O)[O-])ccc1Cl,IRF Lucia reporter activity,[2]; [5],1.1
O=C(CCCN1CCN(c2ccccn2)CC1)c1ccc(F)cc1 (library stock concentration (final ~1000-fold dilution): 10 mM),IRF Lucia reporter activity,[1]; [4],1.08
same,IRF Lucia reporter activity,[1]; agonist: LPS (TLR4) 0.1 ug/mL,1.18
O=C(CCCN1CCN(c2ccccn2)CC1)c1ccc(F)cc1,IRF Lucia reporter activity,[2]; [5],1.24
CCOC(=O)C(CCc1ccccc1)NC(C)C(=O)N(CC(=O)O)C1Cc2ccccc2C1.Cl (stereo not given),IRF Lucia reporter activity,[2]; [5],1.08
CCOC(=O)C(CCc1ccccc1)NC(C)C(=O)N(CC(=O)O)C1Cc2ccccc2C1.Cl (stereo not given) (library stock concentration (final ~1000-fold dilution): 10 mM),IRF Lucia reporter activity,[1]; [4],1.04
same,IRF Lucia reporter activity,[1]; agonist: LPS (TLR4) 0.1 ug/mL,1.18
COCCCC/C(=N\OCCN)c1ccc(C(F)(F)F)cc1.O=C(O)/C=C\C(=O)O,IRF Lucia reporter activity,[2]; [5],1.43
COCCCC/C(=N\OCCN)c1ccc(C(F)(F)F)cc1.O=C(O)/C=C\C(=O)O (library stock concentration (final ~1000-fold dilution): 10 mM),IRF Lucia reporter activity,[1]; [4],0.702
same,IRF Lucia reporter activity,[1]; agonist: LPS (TLR4) 0.1 ug/mL,0.877
Nc1nc(-c2ccco2)c2cnn(Cc3ccccc3F)c2n1 (library stock concentration (final ~1000-fold dilution): 10 mM),IRF Lucia reporter activity,[1]; [4],0.862
same,IRF Lucia reporter activity,[1]; agonist: LPS (TLR4) 0.1 ug/mL,0.69
Cc1ccc(F)c(NC(=O)Nc2ccc(-c3cccc4[nH]nc(N)c34)cc2)c1,IRF Lucia reporter activity,[2]; [6],0.665
Cc1ccc(F)c(NC(=O)Nc2ccc(-c3cccc4[nH]nc(N)c34)cc2)c1 (library stock concentration (final ~1000-fold dilution): 10 mM),IRF Lucia reporter activity,[3]; [4],0.114
same,IRF Lucia reporter activity,[3]; agonist: LPS (TLR4) 0.1 ug/mL,0.671
C=CC(=O)N1CCCC(n2c(=O)n(-c3ccc(Oc4ccccc4)cc3)c3c(N)ncnc32)C1 (stereo not given) (library stock concentration (final ~1000-fold dilution): 10 mM),IRF Lucia reporter activity,[1]; [4],0.831
same,IRF Lucia reporter activity,[1]; agonist: LPS (TLR4) 0.1 ug/mL,0.761
